Measurements taken from a collection of fitness landscapes (doi:10.1126/science.1257360).
The list shows a part of the results.

B1: PhoQ; a variant is named by its letters at X, in order, P23837 (parent)
chain: MKKLLRLFFPLSLRVRFLLATAAVVLVLSLAYGMVALIGYSVSFDKTTFRLLRGESNLFYTLAKWENNKLHVELPENIDKQSPTMTLIYDENGQLLWAQRDVPWLMKMIQPDWLKSNGFHEIEADVNDTSLLLSGDHSIQQQLQEVREDDDDAEMTHSVAVNVYPATSRMPKLTIVVVDTIPVELKSSYMVWSWFIYVLSANLLLVIPLLWVAAWWSLRPIEALAKEVRELEEHNRELLNPATTRELTSLVRNLNRLLKSERERYDKYRTTLTDLTHSLKTPLXXLQXXLRSLRSEKMSVSDAEPVMLEQISRISQQIGYYLHRASMRGGTLLSRELHPVAPLLDNLTSALNKVYQRKGVNISLDISPEISFVGEQNDFVEVMGNVLDNACKYCLEFVEISARQTDEHLYIVVEDDGPGIPLSKREVIFDRGQRVDTLRPGQGVGLAVAREITEQYEGKIVAGESMLGGARMEVIFGRQHSAPKDE

Variants of: B1
Test: enrichment ratio after two sorts for PhoP signalling (ratio (wild type AVST 3.29)); higher = more functional
Details: with PhoP (E. coli)

Variant | enrichment ratio
VSDR | ≤ 0.25
SYHT | ≤ 0.25
FMGK | ≤ 0.25
VNYW | ≤ 0.25
TCPY | ≤ 0.25
YYLD | ≤ 0.25
VSNM | ≤ 0.25
WLAS | ≤ 0.25
TMHL | 11.6
NYFL | ≤ 0.25
STNW | ≤ 0.25
IKRR | ≤ 0.25
FKRI | ≤ 0.25
PQEV | ≤ 0.25
DVFC | ≤ 0.25
MDPG | ≤ 0.25
TDEG | ≤ 0.25
YFHH | ≤ 0.25
FKRL | ≤ 0.25
KPFI | ≤ 0.25
HNIR | ≤ 0.25
REGM | ≤ 0.25
GFHS | ≤ 0.25
TLKK | ≤ 0.25

Variant | enrichment ratio
LPVF | ≤ 0.25
ALVG | 1.71
VHAM | ≤ 0.25
FNRA | ≤ 0.25
MQWP | ≤ 0.25
GFCP | ≤ 0.25
GPAF | ≤ 0.25
RWFN | ≤ 0.25
TSFS | 4.18
EIWL | ≤ 0.25
WAVY | ≤ 0.25
KDVY | ≤ 0.25
KSKA | ≤ 0.25
YVGH | ≤ 0.25
IVYE | ≤ 0.25
MCAP | ≤ 0.25
MEVG | 4.29
WMTK | ≤ 0.25
MNDK | ≤ 0.25
IFCE | ≤ 0.25
RWDA | ≤ 0.25
ISVS | ≤ 0.25
GFYC | ≤ 0.25
NPFN | ≤ 0.25

Variant | enrichment ratio
SAMF | 14.8
PTNN | ≤ 0.25
VIKK | ≤ 0.25
ILAI | ≤ 0.25
KMYI | ≤ 0.25
TVYM | 8.79
MVMW | ≤ 0.25
VEPP | ≤ 0.25
TRIH | ≤ 0.25
APDV | ≤ 0.25
DMNI | ≤ 0.25
THTL | 5.01
EYVM | ≤ 0.25
VDVQ | ≤ 0.25
LSRK | ≤ 0.25
TCCL | 13.8
KDCR | ≤ 0.25
RTGE | ≤ 0.25
HQFI | ≤ 0.25
NWGE | ≤ 0.25
SKQQ | ≤ 0.25
KEWG | ≤ 0.25
QPPD | ≤ 0.25
MFYR | ≤ 0.25

Variant | enrichment ratio
KLQF | ≤ 0.25
VWSF | ≤ 0.25
NVLQ | ≤ 0.25
RIAP | ≤ 0.25
YMCR | ≤ 0.25
AEHL | ≤ 0.25
LCLG | ≤ 0.25
AFIA | ≤ 0.25
ADSS | ≤ 0.25
NKMP | ≤ 0.25
GGTC | ≤ 0.25
LPIV | ≤ 0.25
MEPT | ≤ 0.25
PMAF | ≤ 0.25
YSPQ | ≤ 0.25
VYQH | ≤ 0.25
TPSC | ≤ 0.25
IEQG | ≤ 0.25
VKTS | ≤ 0.25
HHQS | ≤ 0.25
LMNN | ≤ 0.25
VADS | ≤ 0.25
SDSK | ≤ 0.25
QTVY | ≤ 0.25

Variant | enrichment ratio
SSRN | ≤ 0.25
QRTI | ≤ 0.25
DNTE | ≤ 0.25
GQSI | ≤ 0.25
ANKV | ≤ 0.25
EKSM | ≤ 0.25
FQVQ | ≤ 0.25
SQRN | ≤ 0.25
NCTC | ≤ 0.25
KCFT | ≤ 0.25
RIFG | ≤ 0.25
PIVY | ≤ 0.25
ICLD | ≤ 0.25
GLFA | ≤ 0.25
MANY | ≤ 0.25
VWFF | ≤ 0.25
RRLG | ≤ 0.25
DPST | ≤ 0.25
LPFA | ≤ 0.25
RMQG | ≤ 0.25
MLWS | ≤ 0.25
TDGE | ≤ 0.25
NSAI | 0.375
HIVI | ≤ 0.25

Variant | enrichment ratio
GEPN | ≤ 0.25
WYCR | ≤ 0.25
HRRE | ≤ 0.25
HVWW | ≤ 0.25
KRGW | ≤ 0.25
SDWN | ≤ 0.25
VPND | ≤ 0.25
DELH | ≤ 0.25
TGLW | ≤ 0.25
ATRH | ≤ 0.25
HAMS | ≤ 0.25
AGFE | ≤ 0.25
HRGP | ≤ 0.25
QMSI | 6.25
IVLH | ≤ 0.25
FLLH | ≤ 0.25
WSCC | ≤ 0.25
TAII | ≤ 0.25
DCWR | ≤ 0.25
GPRF | ≤ 0.25
AHSF | ≤ 0.25
QCSF | 2.45
VRVT | ≤ 0.25
EKTV | ≤ 0.25

Variant | enrichment ratio
GNFD | ≤ 0.25
YVVL | ≤ 0.25
MPGG | ≤ 0.25
EGTM | ≤ 0.25
SHHD | ≤ 0.25
ENMV | ≤ 0.25
GPKW | ≤ 0.25
STVN | 5.2
YPNC | ≤ 0.25
FILE | ≤ 0.25
FHWE | ≤ 0.25
NQLG | ≤ 0.25
SFCK | ≤ 0.25
KHLE | ≤ 0.25
PDQL | ≤ 0.25
ACSF | 13.3
KAHH | ≤ 0.25
KPWG | ≤ 0.25
PKLL | ≤ 0.25
GPWN | ≤ 0.25
FTIC | ≤ 0.25
PSYY | ≤ 0.25
TDNH | ≤ 0.25
QTYD | ≤ 0.25

Variant | enrichment ratio
RHEM | ≤ 0.25
IITC | ≤ 0.25
VYNA | ≤ 0.25
INTP | ≤ 0.25
SSEQ | ≤ 0.25
NWFC | ≤ 0.25
DRIS | ≤ 0.25
YASK | ≤ 0.25
MEDR | ≤ 0.25
GGAE | ≤ 0.25
VCFA | ≤ 0.25
WPDR | ≤ 0.25
VLEL | ≤ 0.25
GSAY | ≤ 0.25
VLVV | ≤ 0.25
VNCN | ≤ 0.25
VIFH | ≤ 0.25
HEQH | ≤ 0.25
DASP | ≤ 0.25
EAMW | ≤ 0.25
YEYG | ≤ 0.25
SEML | 4.68
KNRA | ≤ 0.25
YNRS | ≤ 0.25

Variant | enrichment ratio
DSNL | ≤ 0.25
LMEV | ≤ 0.25
YIRV | ≤ 0.25
YGHP | ≤ 0.25
PLYW | ≤ 0.25
AEFT | 6.27
NTSH | ≤ 0.25
EHNK | ≤ 0.25
PLWN | ≤ 0.25
ITDW | ≤ 0.25
YYTD | ≤ 0.25
IQTV | ≤ 0.25
MCLV | 9.35
ISKG | ≤ 0.25
PCFY | 0.338
SNKL | ≤ 0.25
LNSP | ≤ 0.25
QNRR | ≤ 0.25
FIST | ≤ 0.25
IIAK | ≤ 0.25
AGEL | ≤ 0.25
GVGD | ≤ 0.25
ELYQ | ≤ 0.25
NDII | ≤ 0.25

Variant | enrichment ratio
KRHV | ≤ 0.25
DCFC | ≤ 0.25
YLVF | ≤ 0.25
RHWS | ≤ 0.25
QMGA | ≤ 0.25
NMEL | ≤ 0.25
MNNA | ≤ 0.25
MLPI | ≤ 0.25
QLYH | ≤ 0.25
KNSI | ≤ 0.25
FYFW | ≤ 0.25
GGSF | ≤ 0.25
YHWT | ≤ 0.25
WERI | ≤ 0.25
IKYL | ≤ 0.25
PYMK | ≤ 0.25
LMMC | ≤ 0.25
GFND | ≤ 0.25
DVVP | ≤ 0.25
KCQG | ≤ 0.25
DEHW | ≤ 0.25
RNPG | ≤ 0.25
HLIH | ≤ 0.25
DNCF | ≤ 0.25

Variant | enrichment ratio
MACE | ≤ 0.25
FFWC | ≤ 0.25
GDNP | ≤ 0.25
KVLV | ≤ 0.25
NRPQ | ≤ 0.25
TNVP | ≤ 0.25
PKNP | ≤ 0.25
DWTT | ≤ 0.25
NQII | ≤ 0.25
SWLK | ≤ 0.25
IPKP | ≤ 0.25
PEWN | ≤ 0.25
GKAL | ≤ 0.25
AHCH | 2.08
MRHC | ≤ 0.25
EFEF | ≤ 0.25
MKCY | ≤ 0.25
NMSS | ≤ 0.25
NQYH | ≤ 0.25
QFIV | ≤ 0.25
QEAP | ≤ 0.25
RSEM | ≤ 0.25
QHMR | ≤ 0.25
TTFF | ≤ 0.25

Variant | enrichment ratio
KGLM | ≤ 0.25
ADTH | ≤ 0.25
LHGQ | ≤ 0.25
LAPW | ≤ 0.25
DGKI | ≤ 0.25
YGSM | ≤ 0.25
YNSC | 0.283
WCLM | 1.17
NRCV | ≤ 0.25
WAMW | ≤ 0.25
QLYY | ≤ 0.25
PRQD | ≤ 0.25
VPPR | ≤ 0.25
VLWI | ≤ 0.25
DRPA | ≤ 0.25
GLCM | 5.66
IERE | ≤ 0.25
GMCM | 22
LLFW | ≤ 0.25
NYKW | ≤ 0.25
GTRS | ≤ 0.25
ANML | 13
DECD | ≤ 0.25
HHAR | ≤ 0.25

Variant | enrichment ratio
TKQS | 0.726
PDSA | ≤ 0.25
PFYF | ≤ 0.25
DALL | ≤ 0.25
IEVG | ≤ 0.25
INIR | ≤ 0.25
WAYV | ≤ 0.25
NSSR | ≤ 0.25
PSAW | ≤ 0.25
GWCQ | ≤ 0.25
WLLA | ≤ 0.25
PGCS | ≤ 0.25
TKVD | ≤ 0.25
WNHW | ≤ 0.25
QIHG | 2.32
LKKQ | ≤ 0.25
FTPF | ≤ 0.25
PCLR | ≤ 0.25
